Results as given in PMC9204602, “Optimized Anchor-Modified Peptides Targeting Mutated RAS Are Promising Candidates for Immunotherapy” (Frontiers in Immunology, 2022).
No end group written: not given here.

Target: HLA-A*03:01 (Homo sapiens, UniProt P04439)
Experiment: MHC-I stabilization assay, T2 cells transfected with HLA-A*03:01
Conditions: Table S2; T2 cells transfected with HLA-A*03:01, stabilization, serum-free RPMI, 4 hours, 37°C, peptide from 100 µM, flow cytometry MFI (GAP.A3); analyzed three times, mean; read-out: EC/IC50 (M) Binding assay: EC50, HLA-A*03:01

`CC(C)[C@H](N)C(=O)N[C@H](C(=O)NCC(=O)N[C@@H](C)C(=O)N[C@@H](CO)C(=O)NCC(=O)N[C@H](C(=O)NCC(=O)N[C@@H](CCCCN)C(=O)O)C(C)C)C(C)C` gave an EC50 of 0.000174 M.

`CC(C)[C@H](N)C(=O)N[C@H](C(=O)N[C@H](C(=O)NCC(=O)N[C@@H](C)C(=O)N[C@@H](CO)C(=O)NCC(=O)N[C@H](C(=O)NCC(=O)N[C@@H](CCCCN)C(=O)O)C(C)C)C(C)C)C(C)C` gave an EC50 of 7.8e-05 M.

VVGARGVGK showed an EC50 of 0.000695 M.
